Measured values as given in article PMC12136788.
The other results are listed elsewhere or left out.

T1: UNK ZnF1-3 (human, UniProt Q9C0B0 31-174)
T1 sequence: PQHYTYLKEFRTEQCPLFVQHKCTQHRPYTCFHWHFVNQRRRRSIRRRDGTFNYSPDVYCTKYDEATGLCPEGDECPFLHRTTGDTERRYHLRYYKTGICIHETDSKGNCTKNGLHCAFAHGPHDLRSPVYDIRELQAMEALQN

B1: chr16:20405944:20405945:-_ENSMUSG00000022822_ENSMUST00000134962|mus_mus|FALSE|FALSE (ssRNA)
RNA: GGGAGUUCUACAGUCCGACGAUCAUGCACAGAGAUAUCCAGGGAAAGCCCCUCAACUCGGGCUGCUGUUUCGAGAGCAUCUUGGCAUUCCAACGAUCUUGUUCUCCGGAACCUGGGUUCCUCGGGGUCUCUGUGUUGCCCUGGCAACAGAGGAUUGAGCAUCA
B2: chr22:19452774:19452775:-_ENSG00000070010_ENST00000399523|hu_hu|motif|central (ssRNA)
RNA: GGGAGUUCUACAGUCCGACGAUCCUUUUCAUUAUAGUUGAUGGCAAUCACAUCCCCGGUGGUCAGACAGGCAAAGUUCCGGAGUGCGUUUUCUAAUACGGCUUUGGGGUUGGUGAUGUCCAGGAAGUCAGGGCUCUGAGGUUGCAACAGAGGAUUGAGCAUCA
B3: chr7:54825262:54825263:-_ENSG00000132432_ENST00000352861|hu_hu|hu_hu_hu_mus_False|38_58 (ssRNA)
RNA: GGGAGUUCUACAGUCCGACGAUCCUGCCGGCUGGGCUCCACAAACUGCAUUACCUGAUCCAUGUUUGUUGGAUGGCACACCUAAAACGUAGAGACAACGUAGCACUGAGAGAACCGAGCCCAACGGAACCGGAAGCUGGCAACCAACAGAGGAUUGAGCAUCA
B4: 88183167_88183488_3190_3pUTR_ENSMUSG00000005621_ENSMUST00000107353|mouse|control|control (ssRNA)
RNA: GGGAGUUCUACAGUCCGACGAUCGGGUUGUGAAAGGACUGUUCACACUGCCGGCAUGGGUACCGCUUCAGCGUCCGACCGUGGCUCUUUUUCAUGUGAGACACGUAGCUCUCUCGAUCAGGAACCCACUCUUGGCACUCCUGACAACAGAGGAUUGAGCAUCA
B5: chr4:25749455:25749456:-_ENSG00000091490_ENST00000264868|hu_hu|hu_hu_hu_mus_False|8_98 (ssRNA)
RNA: GGGAGUUCUACAGUCCGACGAUCGCACUAUGACCUCCCCUAGAAAACACAGGGGGAAAAAAUGUAAACCAAUGUACAAUGUUAUCGCCUUCCCUGUGUGUGGAGUGUUUGUCUCAAGGCUCCUUCUUGCCUUAUAAUUUGGGACAACAGAGGAUUGAGCAUCA
B6: chr1:36770067:36770068:+_ENSG00000054118_ENST00000354618|hu_mus|motif|central (ssRNA)
RNA: GGGAGUUCUACAGUCCGACGAUCUUAAGAGUCAAAGUUGCCCAAAUUAAAAUCUUUACACUAAUAUUACUAUAUAUCCCCGGAAAAGAAGAAAAAGAAAAAAGGAUUUCUUAAUAAAACUCAGGACAGGAAGAGACUGAAAACCAACAGAGGAUUGAGCAUCA
B7: chr22:32879901:32879902:+_ENSG00000100225_ENST00000397426|hu_mus|hu_hu_hu_mus_False|58_58 (ssRNA)
RNA: GGGAGUUCUACAGUCCGACGAUCCUCUUCCAUACUCAUGGCAUCCUGAAUUGACUCAGCUUCAACAUUUUGACUAGGCCCUAACAUACUGUCAUCAGUCCAGGCAUCAAAUGGGGUGGCCUGUCCUUGGGAUGAAUCAGUCCCCAACAGAGGAUUGAGCAUCA
B8: chr8:95500983:95500984:-_ENSG00000164944_ENST00000437199|hu_hu|hu_hu_hu_mus_True|48_98 (ssRNA)
RNA: GGGAGUUCUACAGUCCGACGAUCAGAACACAUCUAUUCGUGUAAAGACCGUACAUGACGGCCUCUACCACUGCCUCCACUAACAAAACUUUCCUCUGAGCCUCCACUGCCGCUAUUUGUACUAGCCCAGGACGGUCCCAGGCCCAACAGAGGAUUGAGCAUCA
B9: chr16:46991118:46991119:-_ENSG00000069345_ENST00000563158|hu_hu|FALSE|FALSE (ssRNA)
RNA: GGGAGUUCUACAGUCCGACGAUCUCCUCUGUUUCUCCAAUUAUGUUAGGAACUUCCGGUCUAGAUGGCAGAAGAUCUUCUAGUUCAGAAAGCUUGUCUGGGUUGAUCCAGUUGUUUUCAGGAAACUGCACAUCAAACUUUAUGCAACAGAGGAUUGAGCAUCA
B10: chr7:141438946:141438947:+_ENSG00000106028_ENST00000265304|hu_mus|hu_hu_hu_mus_True|28_88 (ssRNA)
RNA: GGGAGUUCUACAGUCCGACGAUCGACGAAAUACCUGUAACACAGGUGAAACAUGGCUGGCUUCUGUUUUUCUUACAACCUAAUCUUUAGGCUUUUCCUAAAGGAAAAACCCGAGCAAGAAAAAUGAUAAAUCAAGAAACUACACAACAGAGGAUUGAGCAUCA
B11: 138452885_138453005_684_CDS_ENSG00000189184_ENST00000344876|human|control|control (ssRNA)
RNA: GGGAGUUCUACAGUCCGACGAUCCUGCAGAUGCUCUGUGGGUAGAGUGAUCACAUCAAACUCUAUGGAACAGUUCAAGUUUUUCUGGCACAGUUGUUCACGGUCAAUUGUAGCCCCUAUGCUGAUUUCCCCAUUAUCCUCGUUCAACAGAGGAUUGAGCAUCA
B12: chr7:141445308:141445309:+_ENSG00000106028_ENST00000265304|hu_hu|hu_hu_hu_mus_False|18_48 (ssRNA)
RNA: GGGAGUUCUACAGUCCGACGAUCUAUGAUUGUUGUUGCUUGCCGCCUCACAUUGUUUUUAUCCAUGUACUCGCCAUAGUCCACUUUCCCUUCCAAAAAUAUACGAGCCCCCUUUUUCACAUAUUGAUAUGCCACAUCUCUGAGCAACAGAGGAUUGAGCAUCA
B13: chr10:94956308:94956309:-_ENSMUSG00000062981_ENSMUST00000075829|mus_hu|motif|central (ssRNA)
RNA: GGGAGUUCUACAGUCCGACGAUCCCGAGGGAUAGGUUUUGUGUGUUCAUAUGGAAUGUCCACAGAAGGGUGGUAGCAUACGGUUGUCCUGCCAUCAGAAGUCAGAGCAAGCUCUACGUUGCAAUUAUAGUCAUCUGGUAGAGGCAACAGAGGAUUGAGCAUCA
B14: chrX:148369136:148369137:+_ENSMUSG00000025261_ENSMUST00000112622|mus_hu|FALSE|FALSE (ssRNA)
RNA: GGGAGUUCUACAGUCCGACGAUCUGCAAAGGCUACUGCCUUUUUAAAACACAUGGGGUGGGGAUCAUGGACGGCAUGGAAAGGGGAGAGAAGGUGAGGAAACAGGCGGCGGGGAGAGAAUGAGAAGAGGAACAGGUAUGCGCUCAACAGAGGAUUGAGCAUCA
B15: chr12:42180722:42180723:-_ENSMUSG00000036295_ENSMUST00000043884|mus_hu|mus_mus_mus_hu_True|68_108 (ssRNA)
RNA: GGGAGUUCUACAGUCCGACGAUCCUGUAGGAGCAGAAUCUGUGUGUUAGCUGGCAAUCUGGCUGGGAAGUUUAAAAGACCUAAAUCAUUACAAUCCACUGUAGAUGCUUCCAUAUAAAUGGAUCUGGGUGUAAACCAAGGCCUCAACAGAGGAUUGAGCAUCA
B16: chr19:30113593:30113594:+_ENSMUSG00000024817_ENSMUST00000025739|mus_mus|FALSE|FALSE (ssRNA)
RNA: GGGAGUUCUACAGUCCGACGAUCUUUAACCUGAGCAUCAUUCUGCUUAGAUGUGCUAGGAAGACUGGAGUCUGGACGAACUAGCAGCUGAAUUAUAUCAUUCAGUCCAACGUCGUAGUCAAAUAAAGUAUAUCCAUUUUCCAACAACAGAGGAUUGAGCAUCA
B17: chr16:45382771:45382772:-_ENSMUSG00000022661_ENSMUST00000163230|mus_mus|FALSE|FALSE (ssRNA)
RNA: GGGAGUUCUACAGUCCGACGAUCGAGAGUGUUAUUGUGGGCCCAAUGGAUAGGGAGAGCAUGCUUUUGUAAAGAUGUGAACUACUCACUAAGACUAACAAUAUUGCCUAAGUGCUAUAAAAAUAAGUUAAAUGGACACAUUACCAACAGAGGAUUGAGCAUCA
B18: chr4:144460044:144460045:+_ENSG00000153147_ENST00000283131|hu_mus|hu_hu_hu_mus_False|18_48 (ssRNA)
RNA: GGGAGUUCUACAGUCCGACGAUCACGGUCCAUAGCCUGAAGAUCAACUUGCGGAUUCCAAUCUGAGUCAUAUAAAAUGACUACAUCAGCAGUCGCAAGAUUGAUGCCCAGACCACCAGCACGCGUGCUUAGCAUAAAUACAAACAACAGAGGAUUGAGCAUCA
B19: chr1:46159521:46159522:+_ENSG00000159596_ENST00000372025|hu_hu|FALSE|FALSE (ssRNA)
RNA: GGGAGUUCUACAGUCCGACGAUCUUUUUAUACUUGACCAGGUCUCUUAUGUCCUUUUUCUGGAAAACUACUUUUAACUACUAAAGUGAUUAUAAAUGAAAAAGUGGCCAAUAAAGUGACUACUAUCCUCAGGGCUUUAAACCACAACAGAGGAUUGAGCAUCA
B20: chrX:40531158:40531159:-_ENSG00000180182_ENST00000324817|hu_hu|FALSE|FALSE (ssRNA)
RNA: GGGAGUUCUACAGUCCGACGAUCAUGCAGAUUUCCUGGAGACUGUGUGUGCAUCAUUGAGGGAGACUGAUUGACUGUGCUAUGAUAAGAUGUAGGGGGUGAAGUAAGAGGAUAAGCACCUGAUGUUCCUGGCUGCUUUGGAAACAACAGAGGAUUGAGCAUCA
B21: chr7:65705475:65705476:+_ENSG00000169902_ENST00000304842|hu_mus|FALSE|FALSE (ssRNA)
RNA: GGGAGUUCUACAGUCCGACGAUCUCUAUUCGGUGAUGGCACUCCAUGGCAUGCUGGCCCAGGUAAAACACGGUCACAGAACUAAUCACCAGACACGCCAAGAGUAAGUUCUGCUUCAGCUUCCCAACCAUCUUGAUGUGGUUACAACAGAGGAUUGAGCAUCA
B22: chr7:151048522:151048523:+_ENSG00000013374_ENST00000566856|hu_mus|hu_hu_hu_mus_True|58_58 (ssRNA)
RNA: GGGAGUUCUACAGUCCGACGAUCCUGUUUCUUAUUUAUUACGAUCUUGAUGUAAUUUUCUUGAAAUCCGAAAGUUUCAGCUAUUUUACACCUCAGGUCUCUACCAGUGACAUGCAAGCGGGUCUCCAACAAGCUUUUCUUAUCCAACAGAGGAUUGAGCAUCA

Each binder was assayed against T1, UNK ZnF1-3 (assay: nsRBNS (natural sequence RNA bind-n-seq); RBNS binding buffer (assumed for nsRBNS): 25 mM Tris pH 7.5, 150 mM KCl, 3 mM MgCl2, 0.01% Triton X-100, 500 ug/ml BSA, 20 U/ml SUPERase-In, 4 C; UNK is unkempt and MSI1 is Musashi-1; names of the RNAs are library labels; protein concentration not given here; high values mean tight binding).

| Binder | binding signal |
| --- | --- |
| B1 | 0.605 enrichment R |
| B2 | 1.25 enrichment R |
| B3 | 1.15 enrichment R |
| B4 | 0.739 enrichment R |
| B5 | 1.07 enrichment R |
| B6 | 2.35 enrichment R |
| B7 | 1.17 enrichment R |
| B8 | 1.05 enrichment R |
| B9 | 0.757 enrichment R |
| B10 | 0.714 enrichment R |
| B11 | 0.858 enrichment R |
| B12 | 0.845 enrichment R |
| B13 | 0.944 enrichment R |
| B14 | 1.98 enrichment R |
| B15 | 1.1 enrichment R |
| B16 | 2.06 enrichment R |
| B17 | 2.33 enrichment R |
| B18 | 0.732 enrichment R |
| B19 | 1.11 enrichment R |
| B20 | 2.46 enrichment R |
| B21 | 0.629 enrichment R |
| B22 | 0.727 enrichment R |
